Results taken from PubChem BioAssay (NCATS).
Inconclusive means that the source gave no clear call. Such entries were picked first, then a sample of the others. No potency is given beside an inconclusive call; the fits are too rough. Active and inactive are the calls of the source. Unless noted, calls follow the shape of the dose curve; as a rule, active = well fitted inhibition curve with a large enough effect; inconclusive = small, poorly fitted or top-dose-only effect; inactive = no such curve, though single readings can be large or run the other way.

Tested on: not listed separately
Test: qHTS Assay for Identification of Small Molecule Antagonists for NFkB Signaling Pathway (AID 895; active = well fitted inhibition curve with a large enough effect in the signal ratio, with a control signal flat, not every such curve was filed as active; inconclusive = small, poorly fitted or top-dose-only effect, or effect the other way, or a change in a side signal; the % refers to the signal ratio; as to activity change, negative = inhibition: % is scaled to controls: 0 for no effect and ±100 for the full control effect)
Conditions: NFkB beta-lactamase reporter cells, FRET ratio 460/530, stimulated with 10 pM TNF alpha; activity change, negative = inhibition: at 38.3 µM (top of the series)
In short: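 ME-180 NFkB-bla cells (beta-lactamase under NFkB response element), plated overnight, treated with compound then 10 pM TNF alpha (about EC50) for 5 hrs at 37 C. LiveBLAzer FRET read at 460/530 nm emission, 405 nm excitation.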
Potency is read from the fitted curve at half-maximal effect; tags tell the direction and shape of the fitted curve or compound fluorescence and quenching.

For O=C(O)CCC(=O)N1CCC[C@H]1C(=O)O, which activity change, negative = inhibition is on record?
Its activity change, negative = inhibition is inconclusive: -14.4%.

Which Potency does the source give for CCCCC[C@H](O)CCCC(=O)O here?
Its Potency is active: 5.01 µM.

Which results are given for COC(=O)[C@H]1[C@H]2C[C@H]3c4[nH]c5ccccc5c4CCN3C[C@@H]2CC[C@@H]1O?
Potency: inconclusive [inhibitor, single point]; activity change, negative = inhibition: inconclusive: 20.4%

For OC[C@@H]1NC[C@@H](O)[C@H]1O, which “activity change, negative = inhibition” value is on record?
The value was inactive: -18.9%.

For Cc1cccc(C)c1OC[C@@H](N)C(C)C, which Potency is on record?
The Potency was inconclusive [inhibitor, partial curve].

Which Potency does the source give for Oc1ccc([C@@H]2CNCc3sccc32)cc1O here?
Its Potency is inconclusive [inhibitor, single point].

Target: Cytochrome P450 2C19 (Homo sapiens) (UniProt P33261)
UniProt P33261, sequence (P33261 whole entry, looked up): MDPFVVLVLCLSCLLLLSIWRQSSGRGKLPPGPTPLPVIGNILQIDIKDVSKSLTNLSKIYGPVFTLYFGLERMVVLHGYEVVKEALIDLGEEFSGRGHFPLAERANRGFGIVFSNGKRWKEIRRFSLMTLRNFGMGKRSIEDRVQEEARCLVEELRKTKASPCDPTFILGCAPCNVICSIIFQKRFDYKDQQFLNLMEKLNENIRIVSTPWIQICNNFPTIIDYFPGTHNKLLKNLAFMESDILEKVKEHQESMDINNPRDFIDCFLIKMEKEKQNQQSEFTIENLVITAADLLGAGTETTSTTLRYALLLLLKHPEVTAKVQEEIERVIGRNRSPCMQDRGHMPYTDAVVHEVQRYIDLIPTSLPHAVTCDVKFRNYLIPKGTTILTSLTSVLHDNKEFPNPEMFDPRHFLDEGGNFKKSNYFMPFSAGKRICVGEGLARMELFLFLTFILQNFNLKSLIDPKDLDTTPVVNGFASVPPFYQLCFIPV
Test: qHTS Assay for Inhibitors and Substrates of Cytochrome P450 2C19 (AID 899); also: nearly all actives have a fitted effect of over 60% in size; as to activity, negative = inhibition: top concentration of the series differs between compounds; % is scaled to controls: 0 for no effect and ±100 for the full control effect
Conditions: recombinant CYP2C19, luciferin-H EGE luminescence; series mostly up to 11.4 µM; activity, negative = inhibition: at the top concentration
In short: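 Luminescent read-out of luciferin formed from Luciferin-H EGE (10uM, equal to KM). Enzyme 5nM in 50mM KPO4; compound added, 10 min at 37C, then NADPH regenerating system for 60 min at 37C. Full inhibition defined by 57uM ketoconazole.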

Which Potency does the source give for C[C@@H]1CCCN(CP(=O)(c2ccccc2)c2ccccc2)C1 here?
The Potency was inconclusive [inhibitor, full curve].

For Cc1cc2nc([C@H](C)C(=O)c3ccc(Cl)cc3)c(=O)[nH]c2cc1C, which Potency is on record?
Its Potency is inconclusive [inhibitor, partial curve, poor fit].

For Cn1cccc1C(=O)N1CCC2(CCN(Cc3ccc(C#N)cc3)CC2)CC1, which Potency is on record?
The Potency was inconclusive [inhibitor, full curve, poor fit].

For O=C(c1ccco1)N1CCC2(CCCN(c3ccncc3)C2)CC1, which “activity, negative = inhibition” value is on record?
Its value is inactive: 67.6% [at 57.1 µM].

For O[C@@H](COc1cccc2ccccc12)CN1CCOCC1, which Potency is on record?
The Potency was inconclusive [inhibitor, full curve].

Tested on: not listed separately
Test: qHTS Assay for Identification of Small Molecule Agonists for Hypoxia Response Element Signaling Pathway (AID 914; active = well fitted activation curve with a large enough effect in the signal ratio, with a control signal flat, not every such curve was filed as active; inconclusive = small, poorly fitted or top-dose-only effect, or effect the other way, or a change in a side signal; the % refers to the signal ratio; as to activation: top concentration of the series differs between compounds; % of control where 0% means no effect)
Conditions: ME-180 (cervical carcinoma) HRE-bla reporter, beta-lactamase ratio, CoCl2, 17 h; activation: active compounds read high
In short: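 Cells were plated overnight, pin-dosed with compound in a titration series, co-stimulated with EC50 CoCl2 and incubated 17 hours at 37 degrees Celsius. CCF4 substrate was then loaded, and AC50 values came from the 460nm/530nm ratio.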

For O[C@@H](c1cc(C(F)(F)F)nc2c(Cl)cc(Cl)cc12)[C@@H]1CCCCN1, which activation is on record?
Its activation is inconclusive: 33.8%.

For N/N=C1/c2ccccc2N[C@H]1OC(=O)Nc1ccccc1, which Potency is on record?
Its Potency is inconclusive [inhibitor, single point].

With C[C@@]12CC[C@H]3[C@H](CC=C4C[C@@H](O)CC[C@@]43C)[C@@H]1CC[C@@H]2N(CCO)CCO as the compound, how does the activation read?
Its activation is inactive: 9.1%.

Which Potency does the source give for Cc1cc2nc([C@H](C)C(=O)c3ccc(Cl)cc3)c(=O)[nH]c2cc1C here?
The Potency was inconclusive [inhibitor, single point].

For O=C(c1cnccn1)N1CCC2(CCCN(Cc3ccccc3)C2)CC1, which activation is on record?
Its activation is inactive: 16.9%.

Which activation does the source give for COc1ccccc1CN1CCCC2(CCN(C(=O)c3ccncc3)CC2)C1 here?
Its activation is inactive: 3.13%.

With CCCc1cc(=O)oc2c(CN3CCCC3)c(O)c(Cl)cc12 as the compound, how does the Potency read?
The Potency was inconclusive [activator, partial curve, poor fit].

With Cc1cccc(C)c1OC[C@@H](N)C(C)C as the compound, how does the activation read?
The activation was inactive: -2.64%.

With O[C@H](COc1ccccc1)CN1CCCCC1 as the compound, how does the Potency read?
The Potency was inconclusive [inhibitor, partial curve].

For Oc1ccc([C@@H]2CNCc3sccc32)cc1O, which activation is on record?
Its activation is inconclusive: 2.19%.

Which activation does the source give for O[C@@H](c1cc([C@@]23C[C@H]4CC[C@@H]2C[C@H](C4)C3)nc2c(Cl)cc(Cl)cc12)[C@@H]1CCCCN1 here?
The activation was inconclusive: 22.4%.

Which activation does the source give for CN(C)Cc1cc(C(F)(F)F)ccc1C(O)(c1ccccc1)c1ccccc1 here?
Its activation is inactive: 25.7%.

With C[N+](C)(CCCOc1ccccc1)c1ccccc1 as the compound, how does the activation read?
Its activation is inconclusive: -22.9%.

For CC1(C)N=C(N)N=C(N)N1c1cccc(OCc2cccc([N+](=O)[O-])c2)c1, which activation is on record?
Its activation is inactive: 5.31%.

For O=C1C2ON(c3ccccc3)C(c3cccnc3)C2C(=O)N1c1ccccc1 (configuration not stated), which activation is on record?
The activation was inconclusive: -2.53%.

With C=C1C[C@@]23C[C@]1(O)CC[C@@H]2[C@]12C=C[C@@H](O)[C@](C)(C(=O)O1)[C@H]2[C@H]3C(=O)O as the compound, how does the activation read?
Its activation is inconclusive: -17.1%.

For CC(=O)O[C@]12CC[N@+]3(C)CCCC[C@@H]3[C-]1Nc1ccccc12, which activation is on record?
The activation was inactive: 4.44%.

Which Potency does the source give for COn1c(SC2CCCCC2)nc2ccccc2c1=O here?
Its Potency is inconclusive [inhibitor, partial curve].

Which Potency does the source give for N#Cc1ccc(OC(=O)c2ccc(N=C(N)N)cc2)cc1 here?
Its Potency is inconclusive [activator, single point].

With O[C@@H](COc1cccc2ccccc12)CN1CCOCC1 as the compound, how does the activation read?
Its activation is inactive: 3.28%.
